In the supplement of paper PMC11348887:
Counter-ions that a name gives are not always drawn. Some of the results follow. Rule as the data show it: active = -2 or less and inactive = the rest. Most values come without repeats; read them as rough.

System: hPSC-derived cortical neurons (WA09)
Experiment: nuclei number (viability) z-score; higher = more surviving cells
Settings: 5 µM; treatment: days 7-14 after plating, readout day 21
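Also: nuclei counted from DAPI counterstain by automated high-content image analysis, four fields per well at ×20 in 384-well plates, with sequential b-score then z-score normalization.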

SMILES	nuclei number (z-score)
C#C[C@]1(O)CC[C@H]2[C@@H]3CCC4=CC(=O)CC[C@@H]4[C@H]3CC[C@@]21CC [Levonorgestrel]	inactive: 4.29
N#C/C(=C\c1ccc(O)c(O)c1)C(=O)NCc1ccccc1 [AG-490 (Tyrphostin B42)]	inactive: 1.73
CC(=O)OCC(=O)[C@H]1CC[C@H]2[C@@H]3CCC4=CC(=O)CC[C@]4(C)[C@H]3CC[C@]12C [Deoxycorticosterone acetate]	inactive: 0.224
Cn1cc(-c2ccc3c(c2)CCN3C(=O)Cc2cccc(C(F)(F)F)c2)c2c(N)ncnc21	inactive: -0.312
Oc1cccc(-c2nc(N3CCOCC3)c3oc4ncccc4c3n2)c1	inactive: -0.512
O=C(/C=C/c1ccc(O)c(O)c1)O[C@@H]1C[C@](O)(C(=O)O)C[C@@H](O)[C@H]1O [Chlorogenic Acid]	inactive: 0.364
C[C@@H]1COC(Nc2ccc3ncnc(Nc4ccc(OCc5nccs5)c(Cl)c4)c3c2)=N1 [Varlitinib]	inactive: 0.39
CN(C)CC/C=C1/c2ccccc2COc2ccc(CC(=O)O)cc21 [Olopatadine HCl]	inactive: 1.38
CN(C)Cc1ccc(S(=O)(=O)n2ccc(/C=C/C(=O)NO)c2)cc1 [Resminostat]	inactive: -1.67
Nc1ncnc2n[nH]c(Nc3ccc(F)cc3)c12	inactive: 2.3
CC[C@H](C)C[C@H](C)CCCCCCCCC(=O)N[C@H]1C[C@@H](O)[C@@H](NCCN)NC(=O)[C@@H]2[C@@H](O)CCN2C(=O)[C@H]([C@H](O)CCN)NC(=O)[C@H]([C@H](O)[C@@H](O)c2ccc(O)cc2)NC(=O)[C@@H]2C[C@@H](O)CN2C(=O)[C@H]([C@@H](C)O)NC1=O [Caspofungin Acetate]	inactive: -0.0611
CCn1cc(NC(=S)Nc2cc(Cl)ccc2OC)c(C(N)=O)n1	inactive: -0.647
c1ccc(CN(CC2=NCCN2)c2ccccc2)cc1 [Antazoline HCl]	inactive: -0.762
C[C@H](NC(=O)C(=O)Nc1ccccc1C(C)(C)C)C(=O)N[C@@H](CC(=O)O)C(=O)COc1c(F)c(F)cc(F)c1F [Emricasan]	inactive: 2.08
C=CC(=O)Nc1cccc(Oc2nc(Nc3ccc(N4CCN(C)CC4)cc3)nc3ccsc23)c1	active: -2.79
Cc1ccc(-n2nc(C(C)(C)C)cc2NC(=O)Nc2ccc(OCCN3CCOCC3)c3ccccc23)cc1 [BIRB 796 (Doramapimod)]	inactive: -0.113
CCCCCCCCCCCC[N+](C)(C)CCOc1ccccc1 [Domiphen Bromide]	active: -4.58
Cc1cc(OCc2nnc(SC3CCCC3)n2-c2cccnc2)ccc1-c1ccc(S(C)(=O)=O)cc1	inactive: -0.0749
CNC(=O)c1ccc(C)c(-n2c(C)cc(OCc3ccc(F)cc3F)c(Br)c2=O)c1	inactive: 1.84
OC(CCCN1CCCCC1)(c1ccccc1)c1ccccc1 [Diphenidol HCl]	inactive: 0.139
CCN(CC)CCOC(=O)C(c1ccccc1)c1ccccc1 [Adiphenine HCl]	inactive: 0.329
CCCCCCCCCCCCc1ccc(S(=O)(=O)Nc2nncs2)cc1	inactive: -0.788
Oc1c(F)cc(-c2cnccc2-c2ccc(N3CCOCC3)cc2)cc1F	inactive: 2.88

SMILES	nuclei number (z-score)
CCOC(=O)c1ccc(N)cc1 [Benzocaine]	inactive: 0.0766
CCOC(=O)c1ccc(N)cc1 [Benzocaine hydrochloride]	inactive: 0.276
C[C@H]1[C@H](C)CC[C@]2(C(=O)O)CC[C@]3(C)C(=CC[C@@H]4[C@@]5(C)C[C@@H](O)[C@H](O)[C@@](C)(CO)[C@@H]5CC[C@]43C)[C@H]12 [Asiatic Acid]	inactive: 0.281
CC(C)(C)CC(C)(C)c1ccc(O)c(Cc2ccc(Cl)cc2Cl)c1 [Clofoctol]	inactive: -0.98
CN1CCN(c2c(F)cc3c(=O)c(C(=O)O)cn4c3c2OCN4C)CC1 [Marbofloxacin]	inactive: 1
COC(=O)c1ccc([C@H]2c3[nH]c4ccccc4c3C[C@H](C(=O)OC)N2C(=O)CCl)cc1	active: -4.09
Cc1ccc(S(=O)(=O)NC(=O)NN2CCCCCC2)cc1 [Tolazamide]	inactive: 2.27
C=CC(C)(C)c1cc(/C=C/C(=O)c2ccc(O)cc2)c(OC)cc1O [Licochalcone A]	inactive: -0.228
Cc1ncc(Cl)cc1NCc1ccc(C(=O)N[C@@H](CC2CCCC2)C(=O)NC2CC2)s1	inactive: 0.319
C[N+](C)(C)CCOC(=O)CCC(=O)OCC[N+](C)(C)C [Succinylcholine Chloride Dihydrate]	inactive: 0.302
O=C(CCCCCCC(=O)Nc1ccc([C@H]2O[C@@H](CSc3nc(-c4ccccc4)c(-c4ccccc4)o3)C[C@@H](c3ccc(CO)cc3)O2)cc1)NO [Tubacin]	inactive: -0.687
COc1cc(C(C)=O)ccc1O [Apocynin]	inactive: 0.595
CN(C)c1ccc(O)c2c1C[C@H]1C[C@H]3[C@H](N(C)C)C(O)=C(C(N)=O)C(=O)[C@@]3(O)C(O)=C1C2=O [Minocycline HCl]	inactive: 0.803
CCCCCCCCCCCCCCCCOP(=O)([O-])OCC[N+](C)(C)C [Miltefosine]	inactive: -0.523
CN(Cc1cnc2nc(N)nc(N)c2n1)c1ccc(C(=O)N[C@@H](CCC(=O)O)C(=O)O)cc1 [Methotrexate]	inactive: 0.218
CCOc1ccc2nc3cc(N)ccc3c(N)c2c1 [Ethacridine lactate monohydrate]	active: -5.13
Nc1cc(F)ccc1NC(=O)/C=C/c1cnn(C/C=C/c2ccccc2)c1	inactive: -0.569
Nc1nc(NC2CC2)c2ncn([C@H]3C=C[C@@H](CO)C3)c2n1 [Abacavir sulfate]	inactive: 1.69
NC(N)=Nc1nc(CSCC/C(N)=N/S(N)(=O)=O)cs1 [Famotidine]	inactive: -0.797
CSc1ccc2c(c1)N(CCC1CCCCN1C)c1ccccc1S2 (configuration not stated) [Thioridazine HCl]	active: -2.47
CC/C(=C(/CC)c1ccc(O)cc1)c1ccc(O)cc1 [Diethylstilbestrol]	inactive: 0.968
CC1=C(/C=C/C(C)=C/C=C/C(C)=C\C(=O)O)C(C)(C)CCC1 [Isotretinoin]	inactive: 0.222
OC(CN1CCN(c2cccc(Cl)c2)CC1)C(c1ccccc1)c1ccccc1 (configuration not stated)	inactive: 0.245

SMILES	nuclei number (z-score)
COc1cc(OC)c(/C=C/S(=O)(=O)Cc2ccc(OC)c(NCC(=O)O)c2)c(OC)c1	active: -3.95
CN(C)[C@@H]1C(O)=C(C(N)=O)C(=O)[C@@]2(O)C(O)=C3C(=O)c4c(O)cccc4[C@@](C)(O)[C@H]3[C@H](O)[C@@H]12 [Oxytetracycline (Terramycin)]	inactive: 1.73
CN(C)[C@@H]1C(O)=C(C(N)=O)C(=O)[C@@]2(O)C(O)=C3C(=O)c4c(O)cccc4[C@@](C)(O)[C@H]3[C@H](O)[C@@H]12 [Oxytetracycline Dihydrate]	active: -2.58
C/C(=C\c1ccc(C(=O)O)cc1)c1ccc2c(c1)C(C)(C)CCC2(C)C [TTNPB (Arotinoid Acid)]	inactive: 0.281
COc1ccc(-c2ccc3c(N4CCOCC4)nc(N4C[C@@H](C)O[C@@H](C)C4)nc3n2)cc1CO	inactive: 0.493
COc1cc(NC(C)CCCN)c2ncccc2c1 (configuration not stated) [Primaquine Diphosphate]	inactive: -0.239
Cc1noc(C)c1-c1ccc(-c2cc(C(N)=O)c(NC(N)=O)s2)c(O[C@H]2CCNC2)c1	inactive: 0.464
Cc1ccc([N+](=O)[O-])cc1S(=O)(=O)N(C)/N=C/c1cnc2ccc(Br)cn12	active: -3.48
CCCCCCCc1ccc(CCc2cccc(O)c2C(=O)O)cc1	inactive: 0.322
CCN(c1cc(C#CCN2CCOCC2)cc(C(=O)NCc2c(C)cc(C)[nH]c2=O)c1C)[C@H]1CC[C@H](N(C)CCOC)CC1	inactive: -0.0197
CC(C)(c1ccc(OCC(O)CO)cc1)c1ccc(OCC(O)CCl)cc1 (configuration not stated)	inactive: 0.437
CCCCN1CCCCC1C(=O)Nc1c(C)cccc1C (configuration not stated) [Bupivacaine HCl]	inactive: 1.04
CCOC(=O)c1[nH]c2cc(Cl)ccc2c1C(C(=O)NC(C)(C)C)N(C=O)Cc1ccc(Cl)cc1 (configuration not stated)	inactive: 0.189
CC(C)(C)c1ccc(C(O)CCCN2CCC(C(O)(c3ccccc3)c3ccccc3)CC2)cc1 (configuration not stated) [Terfenadine]	active: -8.52
Cc1ccc2c(=O)c3cccc(CC(=O)O)c3oc2c1C [DMXAA (Vadimezan)]	inactive: 0.887
C=C1/C(=C\C=C2/CCC[C@]3(C)[C@@H]([C@H](C)/C=C/[C@H](C)C(C)C)CC[C@@H]23)C[C@@H](O)C[C@@H]1O [Doxercalciferol]	inactive: 0.644
CCOP(=O)(OCC)C(=Cc1cc(C(C)(C)C)c(O)c(C(C)(C)C)c1)P(=O)(OCC)OCC	inactive: -0.0484
C[C@H]1O[C@@H](Oc2c(-c3cc(O)c(O)c(O)c3)oc3cc(O)cc(O)c3c2=O)[C@@H](O)[C@@H](O)[C@@H]1O [Myricitrin]	inactive: 0.853
Oc1cc2c(cc1O)[C@@H]1c3ccc(O)c(O)c3OC[C@]1(O)C2 [Hematoxylin]	inactive: -0.58
CC(C(=O)O)c1ccc2c(c1)CC(=O)c1ccccc1S2 (configuration not stated) [Zaltoprofen]	inactive: -0.102
COc1ccc(CC2c3cc(OC)c(OC)cc3CC[N+]2(C)CCC(=O)OCCCCCOC(=O)CC[N+]2(C)CCc3cc(OC)c(OC)cc3C2Cc2ccc(OC)c(OC)c2)cc1OC (configuration not stated) [Atracurium Besylate]	inactive: 1.56
